The other results are listed elsewhere or left out. At the low end of the ranking the order means little. The protein was read in a cell extract, so binding may be indirect.
target: T1, HNF4alpha2 (COS-7 nuclear extract) (UniProt P41235); assay: protein-binding microarray; conditions: COS-7 nuclear extract on double-stranded Agilent 4x180k PBM; binding buffer, salt, pH and temperature not given; high values mean tight binding; double strand, one strand shown; sequences stand for … in …GCCTAGGGAGATTAGAGTATCGGTCGA
T1 sequence: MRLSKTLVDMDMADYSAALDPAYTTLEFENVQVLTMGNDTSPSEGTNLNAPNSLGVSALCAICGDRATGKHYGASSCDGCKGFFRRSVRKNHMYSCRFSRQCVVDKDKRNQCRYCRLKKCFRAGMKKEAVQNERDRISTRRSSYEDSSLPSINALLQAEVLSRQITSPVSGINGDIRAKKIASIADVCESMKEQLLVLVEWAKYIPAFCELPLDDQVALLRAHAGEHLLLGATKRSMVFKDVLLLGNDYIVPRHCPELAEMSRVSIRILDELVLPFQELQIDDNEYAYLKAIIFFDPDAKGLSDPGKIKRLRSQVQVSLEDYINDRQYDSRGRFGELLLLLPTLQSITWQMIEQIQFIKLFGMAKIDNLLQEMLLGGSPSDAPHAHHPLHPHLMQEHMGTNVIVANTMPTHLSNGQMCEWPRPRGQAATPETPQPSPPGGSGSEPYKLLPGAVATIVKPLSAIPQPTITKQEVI

| Sequence | binding signal (log2 normalized intensity) |
| --- | --- |
| GTCAGGAGACTGCTCGGCATCCCTGCCGTG | -1.21 |
| GCAAAGTCCCTGGGGACAGGGATTAAGTAC | -1.04 |
| GAAAAATGTACATGTGCAAAAGCACCCAAG | -1.03 |
| AACATTGCATTCCTTTGTTTATCTAACCCA | 0.703 |
| AGTACCAGGTCAAAAGTTCAAACTTTATTT | 3.13 |
| TAGGATAAGGGTAGGGCCAATCTCTGGCAT | -1.01 |
| CATTTTTCCCCTGACAAGTATCTCGGTCAA | 1.22 |
| AGAGGAGAAGCAAATGAAAAGAATATCTCA | -1.14 |
| AGCTCCCATAGAGTCCACCACTGACCTTAG | 3.37 |
| AATGCCCAGGATTCCTTTTTCACTGCTCAC | -1.08 |
| TCCCTATTGTTATCCAGGCCACGCTGCTAA | -1 |
| ACGGGCTATTTGGACTAGGCAAAAGACAGT | 0.282 |
| CATATCACCTAGGTGGAATCTTATACACAC | -0.515 |
| ATCTTCAGTCTAGAATCTGCAGCCCCTTTT | 3.3 |
| TGGACTACTTCATGTCCTGTAATTGGGGGA | 1.09 |
| GTTCGAATCCCAGCGGTGCCTCAACCGAGC | -1.07 |
| ACTACCTCTTTAGGCTGGACTCTGACCCAT | 6.75 |
| GTAACCCCCCAGGAGCGAGTCAAGGGTCAA | 4.07 |
| TTCCTCCCTTGGAATGTGACCTTAGACCCC | 8.18 |
| AACACGGACTTTGAAGCTCCAAGATAGGAA | -1.05 |
| ACCCAACCTGTTACAAAACAGGTTCTTCCA | -0.455 |
| GTGAACTTTGCCCTCTCTTTCTGGAACCTA | 5.08 |
| CCAGAGTCTACAGGTCAGACCTGTTTCAAA | 1.51 |
| CTGCTGGGGGTAAAGTGGATTGCTGGCCTT | 0.0976 |

| Sequence | binding signal (log2 normalized intensity) |
| --- | --- |
| CTCATCCCAGGGATAATGATAAAGAGATTG | -1.13 |
| TGTTTAAATAGTGATAATGGATGGCAAATA | 1.05 |
| TATCAACCAATGTATTCATGAGCATGCTTC | 0.711 |
| GTGCTCCTCCCCATCTCAGCCTCTCAGGTC | 2.01 |
| AGGACCTTGGACTGAAGACTGGAACTGGGC | 0.604 |
| GTAAATGCTGGAGATGAGGCTCAGACCTGA | -1.08 |
| GCCCTGGAATGGGATCCAGGTGCAAAGTAC | 4.18 |
| TTTTGGGTAAAGTCCAGGCAGGACATCAAA | 1.44 |
| AGATGAGGAAATTGAGGCTTAGCAGCTTGA | -1.05 |
| TCCTCAAAGAGCAGATGTGTCTTTATAACA | 1.4 |
| CAAGATTCTTGGAGGCTGCAGCGCCACATT | -1.1 |
| ATGCCAGGCAAGAGCTCAGAAGCCACCAGT | -1.06 |
| ACAGATTCAGAGTCACATTTTAAGAAACCT | -0.998 |
| TCCCCTGGGCCCACGGCTCTGCACAGCCTG | -0.989 |
| GTCAAAGGTCAATGAAGCTCTTGCTGGTCA | 2.5 |
| GTTGCTGTGCTGCCCTCTTGTGGCCATTTG | 1 |
| CCTGCCCTTTGTCCCTCCTGCTAGTCACAT | 2.32 |
| CAGGGCAAGGACTCTAAAGGGAATAACCTT | -0.302 |
| CAGGCCTCCCTCCCTCCCCCATTAGAGGCA | 4.48 |
| GCTGGGGGACGCGACCTCCGGGAAAGCTAT | -1.12 |
| CCAAGTTCAAAGGTTATCTGCTGGCAGAAT | 3.99 |
| AACCCAAAGTCTTTCTCTTTCAAGATAACA | 1.03 |
| AAGTCCACAAAGATAAGAAAGAATCAGCAC | -0.904 |
| GCCTCGCCCGAGCTGTGCGGTAGGCATTGA | -1.28 |

| Sequence | binding signal (log2 normalized intensity) |
| --- | --- |
| GGATTTTAGCAGATAACTCCTGTGCTGGAA | -0.785 |
| TGGAGATCAGAGTCCAGCTGTGCCCCAGTC | 2.89 |
| CTCTCTCCAAGGCACAGAGAAGAATTTCGA | -1.18 |
| CCAGCTCTGTTGCTTATCTTCTCTTTTACT | 1.68 |
| ACAATTTACAGTGTTCAAAGGTAGCTTCCT | 1.53 |
| CTGACCCTCAGGTTGCCCTAGTGACTCTAG | 1.33 |
| CCTGGGGAGCGGCCTGCACCTGTTTCTGGA | -0.834 |
| CCTCGGCTCTGCGCAGGCGCAGTCCTCTCT | -1.03 |
| TCGCCCGAGCGCTGCTTCTCGTCCCCGCCC | 4.07 |
| AAGTTACCTACGGGTCAAGGGTTCAGGGCT | 1.59 |
| AATGCTCTGGCCTTTTTTTTGTGTGTGTGT | 3.22 |
| AGCATGGCCCAGGGACTCAGGCACACAAAA | -1.21 |
| TGTAGCCAGATAAGAGCTATCAATGACCCA | 1.96 |
| ACTTATTGTGTTATGTACTTAGTGTTTTAT | 2.54 |
| AAGCAAGGCTCTTAGCAGAAGCCCTCCTGG | -1.17 |
| TTGGTGCCTGCAGAGCCTCCCCATTGTAGA | 2.46 |
| CTTCCCCTCCTTAGGAAAGAGACATCTGGG | 0.134 |
| TGTCCGGACACCAACCTTTGATCATCCGCA | 3.73 |
| ACTATTTGGTGCACAAGAGGGCAGTATTTG | 1.17 |
| GTGTTTTCCGGGGGCGGTTTTTCCATTGTA | 1.53 |
| CACATTTCTGAGCTGTGGAAACTCCACATG | -1.13 |
| TTCCTGCTGACCCTCTCCCCACCATTAACC | 4.49 |
| TTCCCACCAAACCTGAAAAACCTCTCTCCA | -1.11 |
| TTGAGCTGGATGACCTTTGTCCTGGCACAA | 7.13 |

| Sequence | binding signal (log2 normalized intensity) |
| --- | --- |
| GGCTTAAGATAAGGGACATCAACAAAGAAG | -1 |
| TTGACCCTTAGGATGTGGGGTATCAGGTGG | 2.79 |
| AAAGGTCACCAGTGAGCCAAGGTACCCTGG | 0.407 |
| CAACCTTTGAACTGGGTCTTAATAAGATAA | 2.77 |
| CGATCCTGCCCTTCTGACCTCCCAGGGATA | 3.32 |
| GTGTGAATCGACCTTTAGCACCGTAAGAGA | 5.25 |
| GGAATTTGGGTGATCCTGGTAGCAGGGGTG | 1.37 |
| AGAATAGAGGCCTTTGTGCTGACTAAGAGG | -1.12 |
| TCAGGTGTGAACCCAGGCAAAGTCCAGAAA | 2.96 |
| TCACCATCCCTGTTGCCTCATCTGAAAAAA | 1.11 |
| ACCCTGACCTGTCAAGCAATGATCTTCATG | 0.32 |
| ACGAGGTGAGAGGCGGAACAAGGCTGAAGG | -1.14 |
| CGTTTGCTCCCATCCCCCCAAAGGCTCTCT | 4.38 |
| GGGAAGGGAGCAGTGGGGACGCCTTCCCCT | -1.2 |
| GCATCAGGGTCCACAAGGGTTTAAATCTGA | 1.03 |
| TTTCAGCGTCAATATTTGCTGTCTCTTCCA | -0.674 |
| TAACCATATGTCTTAAGCTAACATGTACAG | 0.0353 |
| GGCCAATCCGGCTGGCAGCCGATTGACCTG | 2.88 |
| CCAGTGAGACCCATTTTGGACTTTGACCTC | 11.9 |
| GTTTTTCTTCCGGTCACATACTCTGGAAAT | 1.37 |
| TCAATAGAGCATGAGAACTTCTTCCAATGA | -1.04 |

Source: publication PMC10726135
